Tests used:
[1] = AC-SINS self-interaction (aggregation behavior); format: physicochemical; settings: cutoff: shift of >5 nm in plasmon wavelength
Description: Developability profiles may be assessed by well-known parameters. […] In some embodiments, antibodies are tested for aggregation behavior by affinity capture self-interaction nanoparticle spectroscopy (AC-SINS). […] Typically, gold nanoparticles are coated with polyclonal antibodies that are specific for human monoclonal antibodies and the monoclonal antibodies are captured by the conjugates. The polyvalency of the monoclonal antibody conjugates amplifies the attractive self-interactions, i.e., aggregation between the adsorbed antibodies. This leads to reduced inter-particle separation distances and is detected by a change in color of the gold colloid solution, which may be quantified by a change in the wavelength of maximum absorbance (plasmon wavelength). Plasmon wavelength of 530 nm may be used as the reported value for unaggregated gold nanoparticles. Antibodies with a tendency to self-aggregate shift the plasmon wavelength toward the red end of the spectrum. In some embodiments, a shift of greater than 5 nm (i.e., >5 nm) in plasmon wavelength may be used as the cutoff indicative of self-interacting antibodies.
The antibodies were tested for aggregation behavior by affinity capture self-interaction nanoparticle spectroscopy (AC-SINS). Gold nanoparticles were coated with polyclonal antibodies that are specific for human monoclonal antibodies and the monoclonal antibodies are captured by the conjugates. The polyvalency of the monoclonal antibody conjugates amplifies the attractive self-interactions, i.e., aggregation between the adsorbed antibodies. This leads to reduced inter-particle separation distances and is detected by a change in color of the gold colloid solution, which was quantified by a change in the wavelength of maximum absorbance (plasmon wavelength). Plasmon wavelength of 530 nm was used as the reported value for unaggregated gold nanoparticles. Antibodies with a tendency to self-aggregate shift the plasmon wavelength toward the red end of the spectrum. A shift of greater than 5 nm (i.e., >5 nm) in plasmon wavelength was used as the cutoff indicative of self-interacting antibodies.

total myostatin = test: circulating total myostatin in serum by ELISA after acidification, dexamethasone study; format: in vivo, mouse; settings: statement in description
Description: An assay of the target engagement of the antibodies, i.e., a pharmacodynamic assay, can be performed by measuring the binding of the antibodies to myostatin. In some embodiments, myostatin is detected as described by Lakshman et al. (Mol. Cell. Endocrinol. (2009) 302(1): 26-32), the contents of which are incorporated herein in their entirety. In some embodiments, samples are treated with acid to convert all myostatin forms to the mature growth factor; a biotinylated capture antibody that is specific for mature myostatin is added to a streptavidin coated plate and detected with a labeled antibody that is specific for mature myostatin.
Briefly, serum samples were acidified at low pH (e.g., pH ~2.5) to dissociate the bound antibody from the immune complex and to convert all myostatin in the sample to the active form of growth factor (i.e., mature myostatin). Samples were then neutralized and assayed for the presence of mature myostatin on ELISA plates coated with anti-mature myostatin antibodies as capture reagents.

murine pro-myostatin = murine pro-myostatin (Mus musculus, UniProt O08689); test: Biacore 8k SPR binding affinity, murine pro-myostatin
Source text: (§1) The Biacore™ 8k SPR system was utilized to evaluate the binding affinity of myostatin antibodies to biotinylated human, murine, and cyno pro-myostatin. Biotin CAPture kit and sensor chips (Cytiva) were utilized in these experiments to immobilize the various antigens, followed by flowing a range of concentrations of each of the test antibodies.

human pro-myostatin = human pro-myostatin (Homo sapiens, UniProt O14793); test: Biacore 8k SPR binding affinity, human pro-myostatin
Source text: as §1

Ka (murine pro-myostatin) | Kd (1/s) (murine pro-myostatin) | Ka (human pro-myostatin) | Kd (1/s) (human pro-myostatin) | Molecule | aggregation behavior by AC-SINS [1] | accumulation of myostatin in serum of dosed subjects, compared with apitegromab (total myostatin)
 |  |  |  | Ab113: anti-pro/latent myostatin antibody; CDR sequences in Table 2d (protein) heavy chain: QVQLVQSGAEVKKPGASVKVSCKVSGYLLTELSIHWVRQAPGKGLEWMGGIIPSFGTAIYAQKFQGRVTMTEDTSTDTAYMELSSLKSEDTAVYYCAISYSGFDLLPLDKWGQGTLVTVSSASTKGPSVFPLAPCSRSTSESTAALGCLVKDYFPEPVTVSWNSGALTSGVHTFPAVLQSSGLYSLSSVVTVPSSSLGTKTYTCNVDHKPSNTKVDKRV[human IgG4 Fc with S228P (EU numbers) left out] light chain: DIQMTQSPSSVSASVGDRVTITCRASQHISTWLAWYQQKPGKAPKLLIYYASSLQGGVPSRFSGSGSGTDFTLTISSLQPEDFANYYCLQTYTYPRTFGGGTKVEIKRTVAAPSVFIFPPSDEQLKSGTASVVCLLNNFYPREAKVQWKVDNALQSGNSQESVTEQDSKDSTYSLSSTLTLSKADYEKHKVYACEVTHQGLSSPVTKSFNRGEC | displayed aggregation behavior | 
 |  |  |  | Ab132: anti-pro/latent myostatin antibody; CDR sequences in Table 2d (antibody) heavy: EVQLVESGGGLVQPGGSLRLSCAASGFTFSSYGMSWVRQAPGKGLELVASFTGSGGTYYPDSVKGRFTISRDNAKNSLYLQMNSLRAEDTAVYYCARDLLIRFLEWSHYYGMDVWGQGTTVTVSSASTKGPSVFPLAPCSRSTSESTAALGCLVKDYFPEPVTVSWNSGALTSGVHTFPAVLQSSGLYSLSSVVTVPSSSLGTKTYTCNVDHKPSNTKVDKRV[human IgG4 Fc with S228P (EU numbers) left out] light: DIVMTQSPLSLPVTPGEPASISCRSSQSLLHSSGHNFLHWYLQKPGQSPQLLIYEVSNRVSGVPDRFSGSGSGTDFTLKISRVEAEDVGVYYCQQQTQYPPTFGGGTKVEIKRTVAAPSVFIFPPSDEQLKSGTASVVCLLNNFYPREAKVQWKVDNALQSGNSQESVTEQDSKDSTYSLSSTLTLSKADYEKHKVYACEVTHQGLSSPVTKSFNRGEC |  | little or no accumulation of total myostatin
1.96e+06 M⁻¹ s⁻¹ | 0.000317 s⁻¹ | 2e+06 M⁻¹ s⁻¹ | 0.000224 s⁻¹ | Ab106: anti-pro/latent myostatin antibody; CDR sequences in Table 2d (antibody) heavy: EVQLVESGGGLVQPGGSLRLSCAASGSAFSSYGMSWVRQAPGKGLELVASINSNGGSTYYPDSVKGRFTISRDNAKNSLYLQMNSLRAEDTAVYYCARDLLVRFLEWAGYYGMDVWGQGTTVTVSSASTKGPSVFPLAPCSRSTSESTAALGCLVKDYFPEPVTVSWNSGALTSGVHTFPAVLQSSGLYSLSSVVTVPSSSLGTKTYTCNVDHKPSNTKVDKRV[human IgG4 Fc with S228P (EU numbers) left out] light: DIVMTQSPLSLPVTPGEPASISCRSSQSLLHSSGHNFLHWYLQKPGQSPQLLIYEVSNRVSGVPDRFSGSGSGTDFTLKISRVEAEDVGVYYCMQQTQYPPTFGGGTKVEIKRTVAAPSVFIFPPSDEQLKSGTASVVCLLNNFYPREAKVQWKVDNALQSGNSQESVTEQDSKDSTYSLSSTLTLSKADYEKHKVYACEVTHQGLSSPVTKSFNRGEC | did not display aggregation behavior | 
8.42e+06 M⁻¹ s⁻¹ | 0.00183 s⁻¹ | 5.92e+06 M⁻¹ s⁻¹ | 0.00105 s⁻¹ | Ab108: anti-pro/latent myostatin antibody; CDR sequences in Table 2d (antibody) heavy: EVQLVESGGGLVQPGGSLRLSCAASGSAFSSYGMSWVRQAPGKGLELVASINSNGGSTYYPDSVKGRFTISRDNAKNSLYLQMNSLRAEDTAVYYCARDLLVGFLQWSHYYGMDVWGQGTTVTVSSASTKGPSVFPLAPCSRSTSESTAALGCLVKDYFPEPVTVSWNSGALTSGVHTFPAVLQSSGLYSLSSVVTVPSSSLGTKTYTCNVDHKPSNTKVDKRV[human IgG4 Fc with S228P (EU numbers) left out] light: DIVMTQSPLSLPVTPGEPASISCRSSQSLLHSSGHNFLHWYLQKPGQSPQLLIYEVSNRVSGVPDRFSGSGSGTDFTLKISRVEAEDVGVYYCMQQTQYPPTFGGGTKVEIKRTVAAPSVFIFPPSDEQLKSGTASVVCLLNNFYPREAKVQWKVDNALQSGNSQESVTEQDSKDSTYSLSSTLTLSKADYEKHKVYACEVTHQGLSSPVTKSFNRGEC | did not display aggregation behavior | 
 |  |  |  | Ab134: anti-pro/latent myostatin antibody; CDR sequences in Table 2d (antibody) heavy: EVQLVESGGGLVQPGGSLRLSCAASGSAFSSYGMSWVRQAPGKGLELVASINSNGGSTYYPDSVKGRFTISRDNAKNSLYLQMNSLRAEDTAVYYCARDLLVEFLKWSHYYGMDVWGQGTTVTVSSASTKGPSVFPLAPCSRSTSESTAALGCLVKDYFPEPVTVSWNSGALTSGVHTFPAVLQSSGLYSLSSVVTVPSSSLGTKTYTCNVDHKPSNTKVDKRV[human IgG4 Fc with S228P (EU numbers) left out] light: DIVMTQSPLSLPVTPGEPASISCRSSQSLLHSSGHNFLHWYLQKPGQSPQLLIYEVSNRVSGVPDRFSGSGSGTDFTLKISRVEAEDVGVYYCMQQTQYPPTFGGGTKVEIKRTVAAPSVFIFPPSDEQLKSGTASVVCLLNNFYPREAKVQWKVDNALQSGNSQESVTEQDSKDSTYSLSSTLTLSKADYEKHKVYACEVTHQGLSSPVTKSFNRGEC | did not display aggregation behavior | 
3.58e+06 M⁻¹ s⁻¹ | 0.000518 s⁻¹ | 3.82e+06 M⁻¹ s⁻¹ | 0.000381 s⁻¹ | Ab104: anti-pro/latent myostatin antibody; CDR sequences in Table 2d (antibody) heavy: EVQLVESGGGLVQPGGSLRLSCAASGSAFSSYGMSWVRQAPGKGLELVASINSNGGSTYYPDSVKGRFTISRDNAKNSLYLQMNSLRAEDTAVYYCARDLLVKFLSWSHYYGMDVWGQGTTVTVSSASTKGPSVFPLAPCSRSTSESTAALGCLVKDYFPEPVTVSWNSGALTSGVHTFPAVLQSSGLYSLSSVVTVPSSSLGTKTYTCNVDHKPSNTKVDKRV[human IgG4 Fc with S228P (EU numbers) left out] light: DIVMTQSPLSLPVTPGEPASISCRSSQSLLHSSGHNFLHWYLQKPGQSPQLLIYEVSNRVSGVPDRFSGSGSGTDFTLKISRVEAEDVGVYYCMQQTQYPPTFGGGTKVEIKRTVAAPSVFIFPPSDEQLKSGTASVVCLLNNFYPREAKVQWKVDNALQSGNSQESVTEQDSKDSTYSLSSTLTLSKADYEKHKVYACEVTHQGLSSPVTKSFNRGEC | did not display aggregation behavior | 
 |  |  |  | Ab111: anti-pro/latent myostatin antibody; CDR sequences in Table 2d (antibody) heavy: QVQLVQSGAEVKKPGASVKVSCKVSGYTFTSNDIHWVRQAPGKGLEWMGGIFPIFGTTIYAQKFQGRVTMTEDTSTDTAYMELSSLKSEDTAVYYCAREGLGYDFDYWGQGTLVTVSSASTKGPSVFPLAPCSRSTSESTAALGCLVKDYFPEPVTVSWNSGALTSGVHTFPAVLQSSGLYSLSSVVTVPSSSLGTKTYTCNVDHKPSNTKVDKRV[human IgG4 Fc with S228P (EU numbers) left out] light: DIQMTQSPSSVSASVGDRVTITCRASQNIGNWLAWYQQKPGKAPKLLIYSASALQSGVPSRFSGSGSGTDFTLTISSLQPEDFANYYCQQSYGAPMYSFGGGTKVEIKRTVAAPSVFIFPPSDEQLKSGTASVVCLLNNFYPREAKVQWKVDNALQSGNSQESVTEQDSKDSTYSLSSTLTLSKADYEKHKVYACEVTHQGLSSPVTKSFNRGEC | displayed aggregation behavior | 

Source: US20260209325A1, “SELECTIVE AND POTENT INHIBITORY ANTIBODIES OF MYOSTATIN ACTIVATION” (SCHOLAR ROCK, INC., priority 2022, published 2026)
